In article PMC4275180 one finds binding data, which are given here for one substance.

Protein sequences, listed by entry. Tags and fused reporters are not part of them.
UniProt P42224: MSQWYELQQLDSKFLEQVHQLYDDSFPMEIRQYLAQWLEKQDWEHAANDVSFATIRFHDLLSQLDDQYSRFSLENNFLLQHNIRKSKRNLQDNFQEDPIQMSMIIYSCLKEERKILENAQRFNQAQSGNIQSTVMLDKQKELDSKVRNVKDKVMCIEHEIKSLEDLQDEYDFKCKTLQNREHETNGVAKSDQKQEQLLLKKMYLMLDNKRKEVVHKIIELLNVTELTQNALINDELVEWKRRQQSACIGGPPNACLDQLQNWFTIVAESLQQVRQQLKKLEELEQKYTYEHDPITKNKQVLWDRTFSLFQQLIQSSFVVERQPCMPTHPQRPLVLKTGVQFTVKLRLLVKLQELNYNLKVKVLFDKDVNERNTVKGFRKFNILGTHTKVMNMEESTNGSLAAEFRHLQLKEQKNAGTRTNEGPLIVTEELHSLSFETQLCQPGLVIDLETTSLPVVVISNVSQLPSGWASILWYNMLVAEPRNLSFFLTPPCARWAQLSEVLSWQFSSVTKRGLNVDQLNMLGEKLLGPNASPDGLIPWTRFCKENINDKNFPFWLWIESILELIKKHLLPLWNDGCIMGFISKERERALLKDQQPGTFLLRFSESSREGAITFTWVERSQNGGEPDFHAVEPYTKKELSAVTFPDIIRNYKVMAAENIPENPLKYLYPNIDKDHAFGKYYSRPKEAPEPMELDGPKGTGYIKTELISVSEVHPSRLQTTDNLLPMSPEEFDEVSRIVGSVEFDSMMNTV

For the test, the target named is T1, FLAG-KDM3A-S264D, full length (UniProt Q9Y4C1).
T1 sequence: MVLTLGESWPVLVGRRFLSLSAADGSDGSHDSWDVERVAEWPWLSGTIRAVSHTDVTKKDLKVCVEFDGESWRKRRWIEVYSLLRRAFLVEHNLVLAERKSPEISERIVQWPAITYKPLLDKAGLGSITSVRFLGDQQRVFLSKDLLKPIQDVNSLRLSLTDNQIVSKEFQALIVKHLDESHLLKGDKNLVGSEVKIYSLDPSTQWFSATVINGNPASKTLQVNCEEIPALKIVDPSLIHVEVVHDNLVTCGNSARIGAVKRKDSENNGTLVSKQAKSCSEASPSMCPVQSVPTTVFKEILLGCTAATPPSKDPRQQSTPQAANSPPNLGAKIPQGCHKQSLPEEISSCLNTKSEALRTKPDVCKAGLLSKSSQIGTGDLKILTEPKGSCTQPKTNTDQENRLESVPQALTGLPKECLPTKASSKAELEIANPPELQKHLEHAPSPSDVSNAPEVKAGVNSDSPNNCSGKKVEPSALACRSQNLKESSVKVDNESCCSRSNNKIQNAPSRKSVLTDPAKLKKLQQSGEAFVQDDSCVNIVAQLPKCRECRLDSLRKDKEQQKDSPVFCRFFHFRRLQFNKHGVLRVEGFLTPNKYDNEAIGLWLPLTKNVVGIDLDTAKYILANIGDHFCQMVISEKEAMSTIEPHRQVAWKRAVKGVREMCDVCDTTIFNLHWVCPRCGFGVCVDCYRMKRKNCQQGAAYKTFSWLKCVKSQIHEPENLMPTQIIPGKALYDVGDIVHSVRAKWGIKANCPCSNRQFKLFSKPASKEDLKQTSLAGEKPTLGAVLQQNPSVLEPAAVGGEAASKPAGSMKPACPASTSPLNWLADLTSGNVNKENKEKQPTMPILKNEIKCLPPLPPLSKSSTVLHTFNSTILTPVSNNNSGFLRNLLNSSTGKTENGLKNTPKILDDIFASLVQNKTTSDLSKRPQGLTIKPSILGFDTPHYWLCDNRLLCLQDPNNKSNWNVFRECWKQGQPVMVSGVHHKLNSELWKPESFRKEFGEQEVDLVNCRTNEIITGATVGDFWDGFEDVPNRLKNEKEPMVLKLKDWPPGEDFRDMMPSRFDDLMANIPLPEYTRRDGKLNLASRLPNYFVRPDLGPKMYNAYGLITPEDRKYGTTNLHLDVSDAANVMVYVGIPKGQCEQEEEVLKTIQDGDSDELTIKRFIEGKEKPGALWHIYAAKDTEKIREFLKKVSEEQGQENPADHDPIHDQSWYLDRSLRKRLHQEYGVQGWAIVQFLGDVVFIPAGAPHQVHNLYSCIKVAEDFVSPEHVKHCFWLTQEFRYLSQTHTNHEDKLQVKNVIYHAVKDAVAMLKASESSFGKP
The test can be described thus: co-IP; FLAG-tagged KDM3A constructs transfected into Jurkat cells, with or without heat shock (42°C); whole cell extract, IP anti-FLAG; endogenous partner (Stat1, p-MSK1) by western blot. (A western blot detects proteins with antibodies after separation by electrophoresis.)

These are yes or no findings as the source states them, for the method shown. Binding seen in cells or lysates may run through a third protein. Some binding calls cover weakened binding; strength is not graded here. Tags and fused reporters may be left off the sequences shown.

On to “Stat1 (endogenous) (from UniProt P42224 1-750)”, for which the binding result is listed as “binds”.
